Measured values from paper PMC4336329 (PLoS ONE, 2015).
Among all 310,000 compounds or so, about 2,200 (0.71%) showed an effect of 50% or more. The effect is printed as a negative number. This is one part of the list.

target: human ether-à-go-go-related gene (hERG) potassium channel (human, UniProt Q12809); assay: primary screen, population patch clamp on CHO cells stably expressing hERG
Sequence (Q12809 whole entry, looked up): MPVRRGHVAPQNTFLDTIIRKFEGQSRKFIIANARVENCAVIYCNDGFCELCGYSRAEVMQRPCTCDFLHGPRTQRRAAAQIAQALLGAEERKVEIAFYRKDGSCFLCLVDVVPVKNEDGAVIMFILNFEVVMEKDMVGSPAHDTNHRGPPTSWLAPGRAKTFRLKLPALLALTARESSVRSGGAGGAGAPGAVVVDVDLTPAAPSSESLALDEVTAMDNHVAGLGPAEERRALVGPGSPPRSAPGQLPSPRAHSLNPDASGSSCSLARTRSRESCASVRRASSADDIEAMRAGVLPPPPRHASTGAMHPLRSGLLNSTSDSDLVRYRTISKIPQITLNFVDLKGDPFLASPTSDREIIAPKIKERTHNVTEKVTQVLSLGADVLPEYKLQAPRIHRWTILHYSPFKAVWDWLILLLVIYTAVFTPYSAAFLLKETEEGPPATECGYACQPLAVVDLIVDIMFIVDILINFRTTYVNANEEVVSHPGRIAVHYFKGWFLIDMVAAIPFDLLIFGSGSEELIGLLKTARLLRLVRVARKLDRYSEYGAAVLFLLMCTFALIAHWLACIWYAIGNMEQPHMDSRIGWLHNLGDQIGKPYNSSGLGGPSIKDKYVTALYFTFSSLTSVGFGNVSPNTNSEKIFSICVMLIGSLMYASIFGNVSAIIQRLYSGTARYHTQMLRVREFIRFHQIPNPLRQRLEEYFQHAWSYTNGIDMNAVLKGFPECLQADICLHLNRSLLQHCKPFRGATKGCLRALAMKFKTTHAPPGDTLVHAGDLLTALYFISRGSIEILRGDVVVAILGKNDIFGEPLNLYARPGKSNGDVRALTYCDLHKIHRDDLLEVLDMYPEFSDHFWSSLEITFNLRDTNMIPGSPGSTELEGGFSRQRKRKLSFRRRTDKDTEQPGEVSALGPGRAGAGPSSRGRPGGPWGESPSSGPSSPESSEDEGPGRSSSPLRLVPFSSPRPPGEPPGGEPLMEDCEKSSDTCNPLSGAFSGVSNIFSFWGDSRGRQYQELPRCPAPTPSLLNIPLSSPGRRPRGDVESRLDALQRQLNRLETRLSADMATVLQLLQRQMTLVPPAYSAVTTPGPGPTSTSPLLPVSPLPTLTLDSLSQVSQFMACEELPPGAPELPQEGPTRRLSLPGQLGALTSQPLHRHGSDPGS

Row | SMILES | hERG current change (%, negative = inhibition) at 1uM
1 | Cc1cccc(C(=O)n2c(=S)nc3ccccn32)c1 | 3.04%
2 | CCCCCC(=O)N/N=C(\C)c1ccc(N2CCCCC2)cc1 | 8.34%
3 | CCOC(=O)N1CCC(NC(=O)C2CCN(S(=O)(=O)c3ccc4c(c3)oc(=O)n4C)CC2)CC1 | 18.7%
4 | COc1ccc(CCNC(=O)C(=O)NCc2ccc(C)cc2)cc1OC | -0.724%
5 | O=C(NCCc1ccco1)c1nn(Cc2ccccc2)c(=O)c2ccccc12 | 9.35%
6 | Cc1ccc(C(=O)c2c3ccccc3[n+]([O-])n2CCC(N)=O)cc1 | 0.352%
7 | NS(=O)(=O)OCCCc1ccccc1 | 8.79%
8 | CC(C)C(=O)N1CCC2(CC1)Oc1ccc(F)cc1C(=O)C21CC(c2ccc(Cl)cc2)=NO1 (stereo not drawn) | 13.6%
9 | CN(C)c1ccc(Nc2ccc([N+](=O)[O-])cn2)cc1 | 21%
10 | Nc1nnn(CC(=O)N/N=C/C=C/c2ccccc2)n1 | 10.6%
11 | Cc1cc(C)c(C)c(S(=O)(=O)NCc2ccc(C(=O)N3CCN(C)CC3)cc2)c1C | 8.45%
12 | C=CCn1c(CSc2nc3ccccc3s2)n[nH]c1=S | 7.5%
13 | O=C(NC1CCCN(Cc2ccc(Cl)cc2)C1)c1cnc2ccccn2c1=O (stereo not drawn) | 5.87%
14 | Cc1cc(C)nc(NC(=O)c2ccc(Cl)cc2)n1 | 7.81%
15 | O=C(CN1CCCCC1)NC(=O)NC1CCCCC1 | 8.35%
16 | CCOc1ccc(OCCNC(=O)c2oc3ccccc3c2COC)cc1 | -4.97%
17 | O=c1ccn(CCOc2ccc(Cl)cc2)c(=O)[nH]1 | 4.71%
18 | COc1ccc(C(=O)NCC(=O)OCc2ccc(Br)cc2)cc1 | 8.43%
19 | O=C(CCC(=O)NC1CC1)Nc1nnc(C2CCCCC2)s1 | 10.8%

Row | SMILES | hERG current change (%, negative = inhibition) at 1uM
20 | O=C(/C=C/c1ccco1)OCC(=O)c1ccc(OC(F)F)cc1 | 5.28%
21 | COc1ccc(/C=N/NC(=O)c2cccc(NC(=O)c3ccccc3)c2)c(C(=O)O)c1OC | 13.9%
22 | Cc1ccc2nc(-c3ccccc3)cc(C(=O)Nc3cccnc3)c2c1 | 0.355%
23 | COc1cc(C(=O)N(C)C2CCCCC2)ccc1OC1CCN(C(C)=O)CC1 | 19.7%
24 | O=C(c1ccco1)N1CCN(Cc2cn[nH]c2-c2cccc3ccccc23)CC1 | 2.23%
25 | O=C1c2ccccc2C(=O)N1CCOc1ccc(F)cc1 | 9.76%
26 | CCC(c1nnnn1Cc1ccc(F)cc1)N1CCN(C)CC1 (stereo not drawn) | 14.3%
27 | O=C(N/N=C/c1ccc(-c2ccccc2C(=O)O)o1)c1cccs1 | 6.8%
28 | Cc1ccc(-c2nc(CSCC(=O)NCCN3CCN(Cc4ccccc4)CC3)c(C)o2)cc1 | -27.2%
29 | Cc1ccc2oc(-c3ccc(NC(=O)c4ccncc4)cc3O)nc2c1 | 25.9%
30 | O=C(Nc1ccccc1C(=O)NC(Cc1ccccc1)C(=O)O)c1ccco1 (stereo not drawn) | 6.15%
31 | Cc1cc(C)c(S(=O)(=O)N2CCN(S(=O)(=O)N3CCC(C)CC3)CC2)c(C)c1 | 19.5%
32 | COc1cc(/C=N/NC(=O)COc2ccc(-n3cnnn3)cc2)ccc1OCC(N)=O | 12.7%
33 | Cc1ccc(C(=O)COc2cc(O)c3c(=O)cc(-c4ccccc4)oc3c2)cc1 | 19.9%
34 | COc1ccc(C2CC(=O)C(C=NCC(C)C)=C(O)C2)cc1 (stereo not drawn) | 11.1%
35 | CCOc1cc(/C=N/NC(=O)CCc2n[nH]c(=O)[nH]c2=O)ccc1O | 11.4%
36 | Cc1nc2ccccc2n1/N=C/c1ccc([N+](=O)[O-])s1 | 10.6%
37 | CCN(CC)CC(=O)N1N=C(c2cccs2)CC1c1ccco1 (stereo not drawn) | -2.26%
38 | Nc1nc2ccc(S(=O)(=O)c3ccc4nc(N)sc4c3)cc2s1 | 7.21%

Row | SMILES | hERG current change (%, negative = inhibition) at 1uM
39 | COc1ccccc1NC(=S)N1CCCC1 | 4.96%
40 | CC(C)NC(=O)c1c2c(nc3ccccc13)CCCC2 | 7.92%
41 | COC(=O)C1=C(c2cccc(C#N)c2)C[C@@H]2CC[C@H]1N2C(=O)NCCc1ccccc1 | -2.41%
42 | COC(=O)c1ccc(Oc2nc(N3CCCCC3)nc(N3CCOCC3)n2)cc1 | 4.1%
43 | COc1ccccc1NS(=O)(=O)c1ccc(C)c(C(N)=O)c1 | 1.81%
44 | COCCNC(=O)CSc1ccccc1C(=O)NC1CCCc2ccccc21 (stereo not drawn) | 12.5%
45 | CN(C)S(=O)(=O)c1cccc(NC(=O)c2ccc(S(=O)(=O)N3CCCC3)cc2)c1 | 6.62%
46 | CCCN(/C=N/c1sc2c(c1C#N)CCCCC2)CCC | 5.57%
47 | O=S([O-])OC1CS(=O)(=O)CC1c1ccccc1.[Na+] (stereo not drawn) | 13.5%
48 | N#Cc1nc(COc2ccc(F)cc2)oc1N1CCCCC1 | 3.71%
49 | Cc1ccc2nc(NC(=O)CCNS(=O)(=O)c3ccc(Br)s3)sc2c1 | -3.66%
50 | Cc1ccc(-c2nn(-c3ccc(F)cc3)cc2C(=O)N(C)CC(=O)Nc2ccc(N3CCOCC3)cc2)cc1 | 13.2%
51 | CCOC(=O)C1CCN(c2cc3c(cc2NC(=O)c2ccccc2Cl)n(C)c(=O)n3C)CC1 | 4.04%
52 | S=c1[nH]nc(-c2ccco2)n1/N=C/c1ccccn1 | 8.35%
53 | Nc1nc(SCC(=O)Nc2ccccc2)nc2nc3c(cc12)CCCC3 | 0.117%
54 | S=C(NCc1cccnc1)Nc1ccc(Oc2ccc(Cl)cc2)cc1 | 0.337%
55 | O=C(NCc1ccc2c(c1)OCO2)c1ccc2c(c1)C(=O)N(Cc1cccnc1)C2=O | 8.7%
56 | CCCCN(CC)CCCNC(=O)c1cc2c(=O)[nH]c3ccccc3c2s1 | 14.9%
57 | C/C=C/c1ccc(OCC(=O)N(C)CC(=O)Nc2ccc(F)cc2)c(OC)c1 | 0.626%
